Among all 150,000 compounds or so, about 540 (0.36%) showed an effect of 50% or more. Some of the results follow.

We go through 85 molecules from ChEMBL document CHEMBL4888484, “Replenishing the malaria drug discovery pipeline: Screening and hit evaluation of the MMV Hit Generation Library 1 (HGL1) against asexual blood stage Plasmodium falciparum ,using a nano luciferase reporter read-out” (2022).

In the assay the test system is Plasmodium falciparum. Description: Primary screen in NF54 nanoGlo assay, in single point, at 2uM, 72h; a lower Z score goes with more inhibition. The conditions noted are these: timepoint 72 hour. It counts as functional, Erythrocyte.
As a reminder, the % Inhibition is the drop in the measured response relative to a control, in per cent. Turning to `Cc1cnc(C(=O)Nc2ccc3c(c2)OCCCO3)cn1`, the “% Inhibition” value was -16% and the Z score amounted to 3.08.
Taken in the same sequence, the figures for `CCN(Cc1ccc(F)cc1)Cc1cc(=O)c2cccc(F)c2[nH]1` were -6% and 0.97.
In the same order, the values of `Cc1cccc(N(C)C(=O)[C@H]2CCn3ccnc3C2)c1` are -16% and 2.26.
Taken in the same sequence, the figures for `CCCCC(=O)N(Cc1ccccc1)C(C)C` were -2% and 0.21.
Turning to `Cc1cccc(C(=O)N[C@H]2CCN(c3ncc[nH]c3=O)C2)c1F`, the “% Inhibition” value is reported as 0% and the Z score came out at 0.05.
`CC(=O)c1cccc(-n2cnnc2[C@H](C)n2cccn2)c1`: the “% Inhibition” value is 10% and the Z score was -1.12.
Taken in the same sequence, the figures for `CCC(C)C(NC(=O)OCc1ccccc1)C(=O)Nc1cc(C)ccn1` (stereo not given) were 1% and -0.27.
In the same order, the values of `CCN(CCOC(C)(C)C)CC(=O)Nc1ccc(NC(C)=O)cc1` are -24% and 2.84.
Taken in the same sequence, the figures for `Cc1c(C(=O)Nc2cc(C)n(-c3ccc(Cl)c(Cl)c3)n2)oc2ccccc12` were 11% and -1.48.
In the case of `COc1ccc(-c2ccc(C(=O)N[C@@]3(CO)CCOC3)c(F)c2)c(F)c1`, the “% Inhibition” value was -4% and the Z score was 0.61.
In the same order, the values of `CN(CCn1cccn1)C(=O)c1ccc(C#N)cn1` are 12% and -1.3.
In the same order, the values of `Cc1ccc(NC(=O)c2cnn(CCN(C)C)c2)cc1-c1ncco1` are -5% and 0.46.
For `O=C(c1ccccc1NCCC1=CCCCC1)N1CC[C@@H](O)C1`, the “% Inhibition” value is given as 2% and the Z score is -0.27.
In the same order, the values of `CCN(C)C(=O)Nc1cc(Cl)cc(C(=O)OC)c1` are -19% and 3.67.
In the same order, the values of `CN(C)c1ccc(C(=O)N2CCNC[C@H]2C(F)F)nc1` are -3% and 0.34.
In the same order, the values of `NC(=O)C1CCN(C(=O)CN2CCN(Cc3ccc(Cl)cc3)C2=O)CC1` are -9% and 1.43.
Turning to `Cc1n[nH]c(C)c1CNC(=O)c1cscn1`, the “% Inhibition” value was -12% and the Z score came out at 1.55.
Regarding `Cc1ccc(NC(=O)N(CCN2CCOCC2)C2CCOCC2)cc1C`, the “% Inhibition” value is on record as -2% and the Z score worked out at 0.38.
Taken in the same sequence, the figures for `Cn1c2c(c(=O)n3ncc(C(=O)Nc4ccc5c(c4)OCCO5)c13)CN(Cc1ccccc1)CC2` were 0% and 0.03.
Taken in the same sequence, the figures for `O=S(=O)(NC1CC1c1ccc(F)cc1)N1CCc2ccccc2C1` (stereo not given) were -3% and 0.37.
Taken in the same sequence, the figures for `Cc1nc(NCc2nc[nH]c2C)c2sccc2n1` were -5% and 0.47.
Consider `O=C(c1ccon1)N1CCN(C(=O)c2ccco2)CC1`, for which the “% Inhibition” value came out at 1% and the Z score is given as -0.19.
In the same order, the values of `CCc1ccc2c(c1)[C@H]1OCCC[C@H]1C(c1ccncc1)N2` (stereo not given in full) are -4% and 0.69.
`COc1ccc(-c2noc(-c3ccc(NCCC(C)C)nn3)n2)cc1`: the “% Inhibition” value came out at 25% and the Z score is -2.88.
Taken in the same sequence, the figures for `CCN(CC)/C(C)=N\S(=O)(=O)c1ccc(Cl)cc1` were -16% and 2.1.
In the same order, the values of `CCNc1ncc(S(=O)(=O)N(C)CC(C)(C)O)cc1Cl` are -2% and 0.2.
In the same order, the values of `Cc1cccc(CC(=O)N2CCc3[nH]nc(C(=O)N4CCc5ccccc5C4)c3C2)c1` are 3% and -0.29.
On to `Cc1ccncc1CC(=O)N(C[C@H]1CCCO1)c1ccc(Br)cc1`, for which the “% Inhibition” value is 11% and the Z score was -1.35.
Taken in the same sequence, the figures for `CC1(C)Cc2ccccc2/C(=C/C(=O)N2CCCCCC2)N1` were 0% and -0.06.
Regarding `COC(=O)CCc1csc(CCN2CCCC2=O)n1`, the “% Inhibition” value is -5% and the Z score was 0.66.
Taken in the same sequence, the figures for `COc1ccc2c(C)c(C(=O)N3CCN[C@@H]4CS(=O)(=O)C[C@@H]43)oc2c1` were -6% and 1.07.
In the same order, the values of `CC(=O)N(Cc1ccc(NCc2ccc(C)o2)cc1)C1CC1` are -5% and 0.72.
Turning to `CCC[C@H]1CN(C(=O)CCc2ccccc2C)C[C@@H]1N`, the “% Inhibition” value was -21% and the Z score is 2.65.
In the same order, the values of `COc1cc(NC(=O)c2nn(-c3ccc(Cl)cc3)c(=O)n(C)c2=O)cc(OC)c1OC` are -5% and 0.47.
Consider `O=C1COc2ccc(C(=O)N3CCN(c4ccccc4)CC3)cc2N1`, for which the “% Inhibition” value is -3% and the Z score is 0.42.
In the same order, the values of `CC1(C)C[C@@]1(NC(=O)Nc1cccc(N2C(=O)CCCC2=O)c1)c1ccccc1` are -4% and 0.47.
Turning to `C#CCN(C(=O)c1cnc2n1CCOC2)C1CC1`, the “% Inhibition” value is given as -6% and the Z score is 1.25.
With `COC(=O)C[C@H]1CCCN1C(=O)c1cccc(C#CCO)c1`, the “% Inhibition” value stood at 1% and the Z score is on record as -0.23.
In the same order, the values of `c1ccc(-n2cc(Cn3nccc3NCc3cncs3)cn2)cc1` are -12% and 1.6.
In the same order, the values of `CCOC(=O)c1cc(NC(=O)N2CCN(C)CC2)c(C)nc1C` are -13% and 1.56.
Taken in the same sequence, the figures for `CC(=O)N1CC[C@H](CN(C)S(=O)(=O)CCc2cccs2)C1` were 0% and 0.04.
As to `O=C(O)[C@@H]1CCCN1c1nc(-c2ccccc2)c2cc(Br)ccc2n1`, the “% Inhibition” value was -11% and the Z score was 1.36.
In the same order, the values of `CC(C)(C)c1nc(CNC2[C@@H]3CCO[C@@H]3C2(C)C)n[nH]1` (stereo not given in full) are -12% and 2.3.
In the same order, the values of `O=C(c1cccc(-c2ncn[nH]2)c1)N1CCC[C@@](O)(C(F)(F)F)C1` are -7% and 1.48.
In the case of `Cc1nn(C)cc1C(=O)N1CCC(CCc2noc(N(C)C)n2)CC1`, the “% Inhibition” value is 5% and the Z score is -0.75.
Consider `CC(CO)(CO)NCc1cc(F)c(F)cc1F`, for which the “% Inhibition” value is -2% and the Z score is 0.24.
In the same order, the values of `CN(CCc1ccccn1)[C@H]1CCCN(Cc2nc3ccc(F)cc3[nH]2)C1` are 0% and -0.03.
As for `CCOc1ccc(NC(=O)c2nn(-c3ccccc3)c3ccccc3c2=O)cc1`, the “% Inhibition” value is listed as -1% and the Z score was 0.13.
In the same order, the values of `CN(Cc1cnccn1)C(=O)Nc1ccc(Br)c(F)c1` are -11% and 1.63.
In the same order, the values of `CCOc1ccc(CNC(=O)c2ccc(-c3noc(-c4ccccc4)n3)s2)cc1OC` are 4% and -0.63.
As to `Cc1nn(C)c(Cl)c1CNc1nn(CC(F)(F)F)cc1Cl`, the “% Inhibition” value is on record as -9% and the Z score was determined as 1.23.
Taken in the same sequence, the figures for `Cc1nccn1[C@@H](C)C(=O)NC1CCN(c2cnccn2)CC1` were -13% and 1.83.
In the same order, the values of `Clc1ccc(NC2(c3noc([C@@H]4CCCCO4)n3)CCC2)cc1` are 35% and -4.67.
Taken in the same sequence, the figures for `COc1ccccc1C1=NS(=O)(=O)N(C)C(C(=O)N2CCN(c3ccccc3)CC2)=C1` were 2% and -0.47.
Regarding `Cc1nnc(COC(=O)c2nccnc2N)o1`, the “% Inhibition” value is given as -5% and the Z score was 0.81.
Taken in the same sequence, the figures for `Cc1cc(Cl)c2oc(C(=O)N(Cc3ccccn3)C[C@@H]3CCC(=O)N3)c(C)c2c1` were -12% and 1.82.
In the same order, the values of `O=C(Nc1ccccc1F)N1CCC(OC[C@H]2CCCO2)CC1` are 7% and -0.9.
For the molecule `c1ccc(-n2ncc(CN3CC(n4cccn4)C3)n2)cc1`, the “% Inhibition” value is given as -19% and the Z score came to 2.39.
For the molecule `CC[C@@H](CO)N1CCN(S(=O)(=O)c2cccc(NC(=O)c3ccn(C(C)C)n3)c2)CC1`, the “% Inhibition” value is recorded as -9% and the Z score was 1.53.
In the same order, the values of `COC(=O)C1C2CCCC2CN1C(=O)Cc1c(C)nn(C)c1C` (stereo not given) are 0% and -0.03.
In the same order, the values of `CCC(NC(=O)N1CCOCC1C1CC1)c1c(C)noc1C` (stereo not given) are -11% and 2.02.
Taken in the same sequence, the figures for `O=C(c1ccc2ncccc2c1)N(CCN1CCCC1)C1CCOCC1` were -6% and 1.
Regarding `O=C(c1nn(-c2ccc(F)cc2)cc1O)N1CC[C@H](c2c(F)cccc2F)C1`, the “% Inhibition” value was -9% and the Z score is 1.03.
Taken in the same sequence, the figures for `O=C(c1cccc(F)c1)N1CCN(c2nnc3ccc(C(F)(F)F)cn23)CC1` were 26% and -2.92.
Taken in the same sequence, the figures for `CCCOc1ccc(CN2C(=O)c3ccc4c5c(ccc(c35)C2=O)CC4)cc1OC` were -13% and 1.82.
In the same order, the values of `CC(C)(C)c1cc(C(=O)NCCc2c[nH]c3ccccc23)nc2[nH][nH]c(=O)c12` are -8% and 1.
On to `Cc1nnc(CN(C)CCC2CCCC2)n1C`, for which the “% Inhibition” value is on record as -7% and the Z score amounted to 1.12.
In the same order, the values of `c1ccc(CC2CCC(NC(c3cccnc3)c3ncc[nH]3)C2)cc1` (stereo not given) are 4% and -0.69.
In the same order, the values of `O=C(Nc1cc(Cl)cc(Cl)c1)[C@@H]1CCCN1CC(=O)N1CCNC1=O` are -10% and 1.45.
Take `CC(C)CNC(=O)CCc1ccc(F)cc1`: the “% Inhibition” value is listed as -4% and the Z score is reported as 0.53.
On to `O=C(Cn1ccc2ccccc21)N1CC(O)C1`, for which the “% Inhibition” value is given as -2% and the Z score turned out to be 0.24.
Taken in the same sequence, the figures for `COc1ccccc1CNC(=O)[C@H]1CN(S(=O)(=O)c2cccnc2)CC12CCCCC2` were 31% and -3.55.
Regarding `Cc1ccccc1N1CCN(C(=O)[C@H]2CCCN(c3nnc4cccc(C)n34)C2)CC1`, the “% Inhibition” value is listed as -17% and the Z score was found to be 2.87.
Taken in the same sequence, the figures for `COc1ccc(CCS(=O)(=O)NCC[C@H]2CCCCN2S(=O)(=O)c2cccs2)cc1` were 2% and -0.32.
Taken in the same sequence, the figures for `CCc1c[nH]c(CNC(=O)C2(C(=O)NC3CC3)CCC2)n1` were 32% and -4.6.
In the same order, the values of `C[C@H]1CCCCN1C1CN(Cc2ccc(OCCCn3ccnc3)cc2)C1` are -3% and 0.37.
As to `Cc1nc(CC(C)C)c(C(=O)N2CCOCC3(CCCC3)C2)s1`, the “% Inhibition” value is listed as 2% and the Z score is -0.31.
In the same order, the values of `CCCNC(=O)CNC(=O)Nc1ccc(C)cn1` are -10% and 1.43.
In the same order, the values of `Cc1ccccc1CN1C(=O)OC(c2ccc(NC(=O)c3ccccc3)cc2)C1C(=O)Nc1ccccc1` (stereo not given) are -7% and 0.86.
Regarding `CO[C@H]1COC[C@@H]1NS(=O)(=O)N1CCC(C)(C)CC1`, the “% Inhibition” value was -4% and the Z score turned out to be 0.48.
For `c1cncc([C@H]2CCN(Cc3csc(-c4ccco4)n3)C2)c1`, the “% Inhibition” value is given as -4% and the Z score is listed as 0.78.
In the same order, the values of `C[C@@]12CCCN1C(=O)N(C1CCN(Cc3ccccn3)CC1)C2=O` are -4% and 0.52.
Taken in the same sequence, the figures for `Cn1nc(O)c2c1CN(C(=O)Nc1cccc3cc[nH]c13)CC2` were -3% and 0.45.
Taken in the same sequence, the figures for `C#CCN(C(=O)Nc1nc(C)c(C)o1)C1CCCCC1` were 29% and -3.84.
Take `O=C(NCc1cccnc1-n1ccnc1)[C@H]1CCc2[nH]ncc2C1`: the “% Inhibition” value is recorded as -6% and the Z score is listed as 1.07.
